Here are results for 43 compounds from paper PMC4336329 (PLoS ONE, 2015).

The campaign covered roughly 310,000 compounds. About 14,000 (4.5%) showed an effect of 50% or more. The effect is printed as a negative number. This is one part of the list.
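Further: peak tail current of the secondary pulse compared with the same well before compound.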

human ether-à-go-go-related gene (hERG) potassium channel, sequence (Q12809 whole entry, looked up): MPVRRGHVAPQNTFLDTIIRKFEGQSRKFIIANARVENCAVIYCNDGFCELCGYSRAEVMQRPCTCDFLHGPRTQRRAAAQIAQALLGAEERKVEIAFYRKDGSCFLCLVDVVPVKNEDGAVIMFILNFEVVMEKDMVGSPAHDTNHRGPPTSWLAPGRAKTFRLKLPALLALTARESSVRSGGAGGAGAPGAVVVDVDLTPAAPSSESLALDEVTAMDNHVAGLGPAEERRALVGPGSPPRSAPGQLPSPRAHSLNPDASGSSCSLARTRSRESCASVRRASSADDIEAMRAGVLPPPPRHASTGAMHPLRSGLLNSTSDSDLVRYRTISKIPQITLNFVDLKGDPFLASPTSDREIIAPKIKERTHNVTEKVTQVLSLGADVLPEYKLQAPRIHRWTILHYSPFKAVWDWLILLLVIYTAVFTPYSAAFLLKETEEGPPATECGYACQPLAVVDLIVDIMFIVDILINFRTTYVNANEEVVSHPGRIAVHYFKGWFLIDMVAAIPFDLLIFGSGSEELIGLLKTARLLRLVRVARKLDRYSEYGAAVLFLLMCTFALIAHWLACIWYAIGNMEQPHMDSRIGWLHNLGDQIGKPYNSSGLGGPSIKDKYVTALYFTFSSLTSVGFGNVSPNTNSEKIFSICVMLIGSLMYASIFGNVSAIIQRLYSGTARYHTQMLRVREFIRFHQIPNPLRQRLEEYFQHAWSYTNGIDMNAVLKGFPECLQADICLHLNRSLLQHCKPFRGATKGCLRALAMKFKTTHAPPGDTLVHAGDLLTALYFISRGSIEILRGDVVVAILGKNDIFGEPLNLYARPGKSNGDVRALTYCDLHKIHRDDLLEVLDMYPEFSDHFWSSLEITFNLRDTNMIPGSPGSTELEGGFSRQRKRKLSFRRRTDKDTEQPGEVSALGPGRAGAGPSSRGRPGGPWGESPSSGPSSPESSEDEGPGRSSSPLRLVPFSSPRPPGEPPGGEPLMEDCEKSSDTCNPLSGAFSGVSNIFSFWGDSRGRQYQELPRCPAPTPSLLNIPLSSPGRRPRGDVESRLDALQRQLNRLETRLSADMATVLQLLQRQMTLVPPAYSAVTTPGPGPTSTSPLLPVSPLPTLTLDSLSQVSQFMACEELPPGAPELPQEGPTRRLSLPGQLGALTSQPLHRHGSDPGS

This experiment addresses human ether-à-go-go-related gene (hERG) potassium channel (human, UniProt Q12809). As to the kind of experiment: primary screen, population patch clamp on CHO cells stably expressing hERG.
Consider `Fc1ccc(N/N=C/C=C/c2ccccc2)c(F)c1`, for which the “hERG current change (%, negative = inhibition) at 10uM” value came out at 0.663%.

Turning to `CCCCn1c(SCC(=O)NCCc2ccc(OC)c(OC)c2)nc2c1c(=O)n(C)c(=O)n2C`, the “hERG current change (%, negative = inhibition) at 10uM” value is on record as -4.03%.

Consider `COc1ccc(NC2CCCN(C(=O)c3ccc(C)c(N4CCNC4=O)c3)C2)cc1` (stereo not shown), for which the “hERG current change (%, negative = inhibition) at 10uM” value amounted to 15.4%.

In the case of `CC(C)NC(=O)CSc1ccccc1C(=O)NNC(=O)Cn1ccc(C(F)(F)F)n1`, the “hERG current change (%, negative = inhibition) at 10uM” value is on record as -1.92%.

For `COc1cc(NC(=O)CCC2CCCC2)cc(-n2cnnn2)c1`, the “hERG current change (%, negative = inhibition) at 10uM” value was 1.96%.

As to `CCc1c(C(=O)NCCc2cccc(C)c2)[nH]c(C)c1C(C)=O`, the “hERG current change (%, negative = inhibition) at 10uM” value is on record as 12.2%.

For `CNC(=S)N1N=C(c2ccc(C)cc2)CC1c1ccc(Br)cc1` (stereo not shown), the “hERG current change (%, negative = inhibition) at 10uM” value was -14.2%.

As for `COC(=O)c1nc(NC(=O)c2ccccc2Cl)n[nH]1`, the “hERG current change (%, negative = inhibition) at 10uM” value was found to be 0.4%.

In the case of `C=C[C@@H]1c2c(F)cccc2N(S(=O)(=O)c2ccc(C)cc2)[C@H](c2ccc(OC(C)=O)cc2)C1(C#N)C#N`, the “hERG current change (%, negative = inhibition) at 10uM” value was 17%.

For `CCOCCCNC(=O)C1(O)c2ccccc2NC(=O)N1c1ccc(Cl)c(Cl)c1` (stereo not shown), the “hERG current change (%, negative = inhibition) at 10uM” value is -1.45%.

In the case of `O=C(/C=C/c1cccs1)NC(=S)NNC(=O)Cc1cccs1`, the “hERG current change (%, negative = inhibition) at 10uM” value was 24.6%.

For `CCn1c(=S)[nH]c2sc3c(c2c1=O)CCCC3`, the “hERG current change (%, negative = inhibition) at 10uM” value stood at 26.7%.

For the compound `CCNC(=O)COc1ccc(C=O)cc1OC`, the “hERG current change (%, negative = inhibition) at 10uM” value was determined as 10.5%.

Consider `Cc1ccc(-c2nc3ccccc3s2)cc1S(=O)(=O)N1CCCC1`, for which the “hERG current change (%, negative = inhibition) at 10uM” value was -4.46%.

On to `CC(OC(=O)c1ccc(Cl)c(S(=O)(=O)N2CCOCC2)c1)C(=O)NC1CCCCC1C` (stereo not shown), for which the “hERG current change (%, negative = inhibition) at 10uM” value is listed as -35.9%.

For `CCn1cc(CNC(=O)c2cc([N+](=O)[O-])c(C)c([N+](=O)[O-])c2)cn1`, the “hERG current change (%, negative = inhibition) at 10uM” value is 5.28%.

In the case of `CCC(C(=O)OCC(=O)Nc1cc(Cl)ccc1Cl)c1ccccc1` (stereo not shown), the “hERG current change (%, negative = inhibition) at 10uM” value is listed as 27.5%.

On to `Cc1ccc(N2CCN(S(=O)(=O)N3CCCCCC3)CC2)cc1Cl`, for which the “hERG current change (%, negative = inhibition) at 10uM” value amounted to 4.91%.

Consider `CC1COC2C(O1)N(S(C)(=O)=O)CCN2S(C)(=O)=O` (stereo not shown), for which the “hERG current change (%, negative = inhibition) at 10uM” value came out at 10.4%.

Turning to `Cc1ccc(CN2CC(C(=O)Nc3nnc(SCc4c(Cl)cccc4Cl)s3)CC2=O)cc1` (stereo not shown), the “hERG current change (%, negative = inhibition) at 10uM” value is on record as 14.1%.

Consider `CCCS(=O)(=O)N1CCC(C(=O)NCCCOC(C)C)CC1`, for which the “hERG current change (%, negative = inhibition) at 10uM” value amounted to 11.1%.

Regarding `CCOC(=O)C1=C(C)N(CCCCCC(=O)O)C(=O)NC1c1ccc(Cl)cc1` (stereo not shown), the “hERG current change (%, negative = inhibition) at 10uM” value is given as 7.91%.

`CCOC(=O)C1=C(COC(=O)CCOc2ccc(C)cc2)NC(=O)NC1C` (stereo not shown): the “hERG current change (%, negative = inhibition) at 10uM” value is given as -6.59%.

As for `COCCNC(=O)Cc1c(C)c2c(cc(C)c3c(C(C)(C)C)coc32)oc1=O`, the “hERG current change (%, negative = inhibition) at 10uM” value is -5.58%.

Turning to `COc1ccc(/C=N/NC(=S)NCCc2ccccc2)cc1`, the “hERG current change (%, negative = inhibition) at 10uM” value came to 17.4%.

For the compound `CN(Cc1ccccc1)S(=O)(=O)c1cccc(C(=O)O)c1`, the “hERG current change (%, negative = inhibition) at 10uM” value amounted to 2.9%.

On to `Cc1ccc(-n2[nH]c(C)c(/C=N/NC(=O)c3ccc([N+](=O)[O-])cc3)c2=O)c(C)c1`, for which the “hERG current change (%, negative = inhibition) at 10uM” value came out at 9.6%.

As to `CC(C)n1nnnc1SCC(=O)NCc1ccco1`, the “hERG current change (%, negative = inhibition) at 10uM” value turned out to be 0.635%.

On to `O=C1CSC(c2ccccc2[N+](=O)[O-])N1CCc1ccccc1` (stereo not shown), for which the “hERG current change (%, negative = inhibition) at 10uM” value was -41%.

Take `COCCn1c(-c2ccc3ccccc3c2)nc2c1c(=O)[nH]c(=O)n2CC(C)C`: the “hERG current change (%, negative = inhibition) at 10uM” value is listed as -19.3%.

Consider `CN(c1ccc(OCC(=O)N2CCOCC2)cc1)S(=O)(=O)c1ccc(F)cc1`, for which the “hERG current change (%, negative = inhibition) at 10uM” value is -9.15%.

With `Cc1cccc(N2CCN(C(=O)CCS(=O)(=O)c3ccc4c(c3)oc(=O)n4C)CC2)c1C`, the “hERG current change (%, negative = inhibition) at 10uM” value was -51.2%.

As to `CC(C)(O)C#Cc1ccc(CN2CCC(n3nccc3NC(=O)C3CC3)CC2)cc1`, the “hERG current change (%, negative = inhibition) at 10uM” value is recorded as -19%.

As for `Cc1ccc(Cn2c(SCc3cccnc3)nc3c2c(=O)n(C)c(=O)n3C)cc1`, the “hERG current change (%, negative = inhibition) at 10uM” value was -0.713%.

As to `Clc1ccc(SCc2cc(N3CCOCC3)nc(-c3ccccn3)n2)cc1`, the “hERG current change (%, negative = inhibition) at 10uM” value is -43.5%.

For `CCCCCCCCC(=O)NC(NC(=S)N1CCOCC1)C(Cl)(Cl)Cl` (stereo not shown), the “hERG current change (%, negative = inhibition) at 10uM” value was determined as 10.2%.

Take `CC(C)=CC(=O)N1CCCC(N2CCN(c3ccc(F)cc3)CC2)C1` (stereo not shown): the “hERG current change (%, negative = inhibition) at 10uM” value was -0.816%.

As to `Cn1c(COc2ccc([N+](=O)[O-])cc2)nnc1SCC(=O)NCC1CCCO1` (stereo not shown), the “hERG current change (%, negative = inhibition) at 10uM” value is reported as -35.4%.

`O=C(c1cc(F)ccc1F)C1CCCN(C(=O)CCc2cnccn2)C1` (stereo not shown): the “hERG current change (%, negative = inhibition) at 10uM” value is reported as 5.06%.

For the compound `CCCNC(=O)c1onc(CSc2ccc(F)c(F)c2)c1C(=O)NCCC`, the “hERG current change (%, negative = inhibition) at 10uM” value is recorded as -18.3%.

Turning to `CCOC(=O)c1cc(NC(=O)C2C3CCC(O3)C2C(=O)O)cc(C(=O)OCC)c1` (stereo not shown), the “hERG current change (%, negative = inhibition) at 10uM” value was -5.05%.

As for `Cc1cc(C)c(NC(=O)CSc2ccc3nnc(CCNC(=O)c4ccccc4)n3n2)c(C)c1`, the “hERG current change (%, negative = inhibition) at 10uM” value was -15.4%.

Take `O=C(NNC(=O)c1ccccc1OCc1ccccc1)c1ccccc1F`: the “hERG current change (%, negative = inhibition) at 10uM” value is reported as -4.28%.
